Assay results taken from PubChem BioAssay AID1508624 (National Center for Advancing Translational Sciences (NCATS), 2021).
About 120 (0.25%) of roughly 48,000 compounds were called active. Another 4% or so got no clear call; they are omitted. Calls come from the whole dose curve; as a rule, active = well fitted activation curve with a large enough effect; inconclusive = small, poorly fitted or top-dose-only effect, or another doubt; inactive = no such curve, though single readings can be large or run the other way. This is one part of the list.

assay: Primary qHTS for Identification of Small Molecule Activators of Huntingtin-Antisense Promoter Activity; conditions: HEK293 HTT-AS promoter firefly luciferase reporter (activity 0% = vehicle and -100% = no light), 24 h; series mostly up to 57.5 µM; activity change, positive = activation: at the top concentration; note: nearly all actives have a fitted effect of over 55% in size
Procedure, shortened: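 Quantitative HTS used concentration series of up to 57.5 uM final on HEK293 luciferase reporter cells, 24 h at 37 degrees C. Readout was Dual-Glo firefly luminescence.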
Potency is the fitted concentration of half-maximal effect.

Activity change, positive = activation, inactive:
CCN(CC)S(=O)(=O)c1ccc2c(c1)N(CC(=O)N1CCN(c3ccc(OC)cc3)CC1)C(=O)CO2 -10.5%
Cc1ccccc1Nc1c(-c2cccc(Cl)c2)nc2ncccn12 -4.51%
CCNC(=O)c1c(NC(=O)Cc2coc3ccc(CC)cc23)sc2c1CCCC2 -18.9%
CC(C)(C)C(=O)C(Oc1ccc(Cl)cc1)n1ccnc1 (stereo not given) -10.3%
COc1cccc(C2C(C(=O)Nc3ccc(Cl)cc3)=C(C)Nc3nc4ccccc4n32)c1OC (stereo not given) -21%
CC(=O)N1CCCc2cc(S(=O)(=O)N3CCN(c4ccccc4F)CC3)ccc21 -34.4%
CCCCNC(=O)c1c(-c2ccccc2)c(-c2ccccc2)nn(C)c1=O -13.7%
Cc1oc2ncn(CC(C)C)c(=O)c2c1C(=O)N(CCN(C)C)Cc1ccccc1 4.37%
Cc1ccc2c(c1)N(C(=O)N1CCC(C(=O)NCc3ccccc3C)CC1)CC(C)O2 (stereo not given) -21.6%
CCCCNC(=O)c1ccc2c(c1)N(CC)C(=O)c1ccccc1S2 -21.9%
CC(=O)N1c2ccc(S(=O)(=O)NCc3ccccc3Cl)cc2CC1C (stereo not given) -29%
NC(=NCCCCCCN=C(N)/N=C(\N)Nc1ccc(Cl)cc1)/N=C(\N)Nc1ccc(Cl)cc1 -28.7%
CCOC(=O)c1c(C)n(-c2ccccc2)c2ccc(OC(=O)COc3ccccc3)cc12 -1.36%
COc1ccc(N2CCN(C(=O)C3CCCN(C(=O)c4cc5sccc5n4C)C3)CC2)cc1 (stereo not given) -27.8%
CCCCNC(=O)CN1C(=O)c2cccnc2Sc2ccccc21 -7.03%
CC1=C(C(=O)Nc2cccnc2)C(c2cccc(F)c2)n2nc(SCc3ccccc3F)nc2N1 (stereo not given) -17.9%
COc1ccc(C)cc1NC(=O)c1cc(S(=O)(=O)N2CCOCC2)cn1C -11.7%
O=C(CSc1nc(=O)[nH]c2c1CCCC2)NCc1ccccc1Cl -2.72%
Cn1c(=O)c2c(nc(SCC(=O)Nc3ccc(F)cc3)n2Cc2ccccc2F)n(C)c1=O -11.2%
COc1ccc(C(CNC(=O)c2ccc(F)cc2)N2CCCC2)cc1 (stereo not given) -7.47%
Cc1cc(C)cc(NC(=O)N2CCC(CN3CCCCCC3)CC2)c1 -1.55%
CCCSc1ncc(Cl)c(C(=O)Nc2c(C(=O)c3ccc(C)cc3)oc3ccccc23)n1 -9.12%
CCC(=O)N1c2ccc(S(=O)(=O)CCC(=O)N3CCN(c4cc(C)ccc4C)CC3)cc2CC1C (stereo not given) -24.6%
CCOc1ccc2nc(NC(=O)c3nc(SCc4ccccc4C)ncc3Cl)sc2c1 -5.01%
COc1cc(N2CCN(C)CC2)ccc1Nc1nc(N)c(C(=O)c2c(Cl)cccc2Cl)s1 -6.58%
COc1ccc(-n2c(SCC(N)=O)nc3c(oc4ccccc43)c2=O)cc1 -16.2%
Cc1ccc(-c2onc(C)c2C)cc1S(=O)(=O)N1CCOc2ccc(Cl)cc21 -91.4%
Cc1ccccc1OCC(O)CO (stereo not given) 3.84%
O=C(Cc1cccs1)Nc1c(C(=O)Nc2ccc(F)cc2)oc2ccccc12 16.8%
CC(=O)N1CCc2c(sc3c2c(=O)n(Cc2ccccc2)c(=O)n3Cc2ccccc2F)C1 -44%
COc1cc(/C=C(\C#N)c2nc3ccccc3[nH]2)ccc1OCc1ccccc1F -36.4%
COc1ccc(CCC(=O)NCc2ccc3c(c2)CCN3C(=O)c2ccccc2)cc1 -14.4%
COc1c(Cl)cc(C(=O)N(Cc2ccccc2F)C2CCS(=O)(=O)C2)cc1Cl (stereo not given) -8.72%
CCC(Sc1nc(-c2ccc(F)cc2)nc2c1Cc1c(CO)cnc(C)c1O2)C(=O)Nc1ccc(F)cc1 (stereo not given) -11.2%
CCS(=O)(=O)N1CCc2cc(C(=O)N3CCN(c4ccccc4OC)CC3)ccc21 -39.4%
CC(C)(C)OC(=O)N1CCc2nc(N3CCN(c4ncccn4)CC3)ncc2C1 -5.66%
Cc1oc2cc3oc(=O)c(CC(=O)NCc4ccccc4)c(C)c3cc2c1C -2.19%
CC1=C(CC(=O)O)c2cc(F)ccc2/C1=C\c1ccc(S(C)(=O)=O)cc1 -15.4%
Cc1ccc(-n2c(=O)c3sc4ccccc4c3n(C)c2=O)cc1F -4.1%
COc1cccc(NC(=O)c2oc3ccccc3c2NC(=O)c2ccc(F)c(F)c2)c1 22.5%
O=C(CSc1nc2nccnc2c(=O)n1CCc1c[nH]c2ccccc12)Nc1ccccc1 -31.2%
O=C(NC1CC(=O)N(c2ccccc2)C1)C(c1ccccc1)c1ccccc1 (stereo not given) -15.3%
O=C1CN(/N=C/c2ccc([N+](=O)[O-])o2)C(=O)N1 -25.4%
COC(=O)c1c(NC(=O)/C(C#N)=C/c2ccc(OC)cc2)sc2c1CCC2 -5.9%
Cc1ccc(C(=O)N2CCCCC2)cc1NC(=O)c1nsc2ccccc12 -19.8%
Cc1c(CCNC(=O)c2ccc(Br)o2)sc2nc(-c3ccc(Cl)cc3)nn12 -2.09%
COc1ccc(S(=O)(=O)N2CCC(N3CCN(Cc4ccc(F)cc4)C(=O)C3=O)CC2)cc1 -12.2%
CCc1ccc(C(=O)c2cn(CC(=O)Nc3cc(OC)ccc3OC)c3nc(C)ccc3c2=O)cc1 -29.8%
NS(=O)(=O)c1ccc(CCNC(=O)c2ccc3nc(CCc4ccccc4)oc3c2)cc1 5.66%
Cc1cc2c(cc1S(=O)(=O)N(C)CC(=O)Nc1ccc(C#N)cc1)OCC(=O)N2 -29.6%
CCOC(=O)c1c(S(=O)(=O)NCC(=O)Nc2ccc(C)c(N(C)C)c2)c(C)n(C)c1C -15%
Cn1c(=O)c2c(SCC(=O)NCc3ccco3)nc(-c3cccc(F)c3)nc2n(C)c1=O -8.34%
Cc1ccc(S(=O)(=O)c2cn(CC(=O)Nc3ccccc3C)c3cc4c(cc3c2=O)OCO4)cc1 -0.224%
CCOc1ccc(CC(=O)Nc2c(C(=O)Nc3ccc(OC)cc3OC)oc3ccccc23)cc1 -0.0542%
C[C@H](N)[C@H](O)c1cccc(O)c1 -0.714%
COc1ccc(-c2nc3cc(C)ccn3c2NC(=O)c2ccc(F)cc2)cc1 25.5%
Cc1ccc(Cl)cc1NC(=O)C1CCCN(S(=O)(=O)c2cccc3cccnc23)C1 (stereo not given) -20.8%
CCC(=O)N1CCc2cc(Br)cc(S(=O)(=O)N3CCCC(C(=O)Nc4cccc(C)c4C)C3)c21 (stereo not given) -32.1%
Cc1ccccc1NC(=O)c1c(NC(=O)c2ccco2)sc2c1CCC(C(C)(C)C)C2 (stereo not given) -9.16%
COc1ccccc1CNC(=O)CSc1nc2nc(C)c(Cc3ccccc3Cl)c(C)n2n1 0.501%
COc1ccc(N2C(=O)CS(=O)(=O)C23C(=O)N(Cc2ccc(F)cc2)c2ccc(C)cc23)cc1 (stereo not given) -16%
CC(=O)[C@@]1(O)CC[C@H]2[C@@H]3C[C@H](C)C4=CC(=O)CC[C@]4(C)[C@H]3CC[C@@]21C -26.7%
COc1ccc(CCNC(=O)c2cccc(-n3cnc4cccnc43)c2C)cc1OC -22.9%
CC(CNC(=O)CN1C(=O)COc2ccc(S(=O)(=O)N3CCCCCC3)cc21)c1ccccc1 (stereo not given) -33.7%
CCCCNC(=O)c1nn(-c2ccc(C)cc2)c(=O)n(C)c1=O 3.75%
CCOC(=O)c1c(S(=O)(=O)N2CCCC(C(=O)Nc3cccc(C#N)c3)C2)c(C)n(C)c1C (stereo not given) -15.9%
Cc1ccccc1CNC(=O)c1cccc(NC(=O)N2CCSc3ncccc32)c1 -26.6%
CC(Oc1ccccc1)C(=O)Nc1ccc(OCc2cc(=O)n3ccsc3n2)cc1 (stereo not given) 2.59%
COc1cccc(NS(=O)(=O)c2ccc3c(c2)[C@H]2C=CC[C@H]2[C@@H](c2ccccc2Cl)N3)c1 -27.6%
COc1ccccc1NC(=O)CSc1nc2nccnc2c(=O)n1CCc1c[nH]c2ccccc12 -29.4%
Cc1cccn2c(Nc3ccccc3)c(-c3cccs3)nc12 -12.3%
CCN(CC)CCNC(=O)CSc1nc2nc(C)c(Cc3ccccc3)c(C)n2n1 5.79%
CN=C(NC#N)Nc1ccc(C2=NNC(=O)CC2C)cc1 (stereo not given) -7.68%
Cc1[nH]c2ccccc2c1C(c1ccccc1)c1ccc(Cl)s1 (stereo not given) -35.2%
CCOc1ccccc1NC(=O)CCn1cnnn1 4.7%
COc1cccc(CNC(=O)Cc2ccc(NC(=O)N3CCSc4ncccc43)cc2)c1OC -14.6%
Cc1cccc(N2CCN(C(=O)CN3C(=O)COc4ccc(S(=O)(=O)N5CCC(C)CC5)cc43)CC2C)c1 (stereo not given) -16.1%
CC(C)c1nc2ccc(C(=O)NCCCN3CCN(c4cccc(Cl)c4)CC3)cc2o1 -16%
CCOC(=O)N1CCN(Cc2nc3cc([N+](=O)[O-])ccc3n2C(C)C)CC1 -26.7%
CCOc1ccc(CCNC(=O)c2nc(-c3cccc(F)c3)n3c2CCCCC3)cc1OCC -20.2%
CCOc1ccc(CNC(=O)c2cnc3sc(N4CCOCC4)nn3c2=O)cc1OC -21.4%
Cc1cccc(N2CCN(C(=O)C3CCCN(S(=O)(=O)c4ccc(Br)s4)C3)CC2)c1C (stereo not given) -56.1%
CCOC(=O)C1CCC(CN(Cc2ccc(Cl)cc2)S(=O)(=O)c2cc(Cl)cc(Cl)c2)CC1 (stereo not given) -41%
Cc1ccc(-c2nnc(SCC(=O)c3ccc(Cl)cc3)n2-c2ccccc2)cc1 -11.9%
Cc1cccc(N2CCN(S(=O)(=O)c3ccc4c(c3)C(C(C)C)C(=O)N4)CC2)c1C (stereo not given) -86.1%
CCOc1ccccc1NC(=O)C1CCN(S(=O)(=O)c2cc(Br)cc3c2N(C(C)=O)CC3)CC1 -6.67%
COc1cccc(CN2CCCN(CC(=O)Nc3ccc4c(c3)OCCO4)S2(=O)=O)c1 -4.69%
COc1cccc(N(Cc2nnc3n2CCCCC3)C(=O)Nc2ccccc2)c1 -8.69%
Cc1nc2nc(NC(=O)c3ccc(C(C)(C)C)cc3)[nH]n2c(=O)c1Cl -6.97%
Cc1oc(-c2ccccc2F)nc1CSCC(=O)N1CCN(c2ccccc2)CC1 -63.9%
CCN(CC)CCOC(=O)C(Cc1cccc2ccccc12)CC1CCCO1 (stereo not given) -18.3%
CCOc1ccc(CNC(=O)c2ccc3c(c2)N(CC)CCS3)cc1 -2.91%
CCCCOc1ccc(C(=O)NCCc2sc(-c3ccc(OC)c(OC)c3)nc2C)cc1 -19.4%
O=C(Nc1cccc(O)c1)c1cc2nc(-c3ccc(Br)cc3)cc(C(F)(F)F)n2n1 -22.2%

Potency, active:
CCCc1nnc(NC(=O)c2cc(=O)c3ccccc3o2)s1 3.98 µM
